Results published in PubChem BioAssay AID485344 (National Center for Advancing Translational Sciences (NCATS), 2010).
Hit rate of the full screen: of about 340,000 compounds, about 6,900 (2%) were called active. Rule as the data show it: active = inhibition above about 30%; inactive = below that, where a call was filed. The entries are a selection whose mix differs from that of the whole data set. The source gives no active or inactive call for entries shown without one.

What follows are compounds tested against D(2) dopamine receptor (Homo sapiens) (UniProt P14416) (assay: HTS Assay for Allosteric Antagonists of the Human D2 Dopamine Receptor: Primary Screen for Antagonists). Conditions: HEK293 TREx D2 cells, calcium flux, dopamine EC80; at 10 µM; stronger effect = higher value.
Procedure, shortened: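 Dopamine at EC80 is the agonist stimulus; test compounds precede it by 180 s. Calcium flux read kinetically in a force-coupled, inducible HEK293 T-REx D2 cell line.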
Also: 0% is about no effect.

UniProt P14416, sequence (P14416 whole entry, looked up): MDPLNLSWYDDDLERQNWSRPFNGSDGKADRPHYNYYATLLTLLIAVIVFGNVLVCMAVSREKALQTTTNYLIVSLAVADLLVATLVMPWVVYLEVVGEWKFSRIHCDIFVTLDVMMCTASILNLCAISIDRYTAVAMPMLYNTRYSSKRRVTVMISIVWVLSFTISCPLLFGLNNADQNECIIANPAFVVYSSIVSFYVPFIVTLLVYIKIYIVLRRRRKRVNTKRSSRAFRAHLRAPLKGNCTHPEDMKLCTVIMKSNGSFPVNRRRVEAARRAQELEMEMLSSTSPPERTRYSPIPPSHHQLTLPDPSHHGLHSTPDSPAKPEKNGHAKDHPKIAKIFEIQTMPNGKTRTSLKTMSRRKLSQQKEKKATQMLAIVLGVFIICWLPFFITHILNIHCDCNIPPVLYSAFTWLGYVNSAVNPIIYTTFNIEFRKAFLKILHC

Compound	inhibition
CCOC(=O)CSc1nnc2n(-c3ccccc3)c(=O)c3c4c(sc3n12)COC(C(C)C)C4 (stereo not given)	-17.4%
COc1ccc(C(=O)[C@H]2[C@H]3C(=O)N(c4ccccc4)C(=O)[C@H]3C3C=CC=NN32)cc1 (stereo not given in full)	active: 43.1%
CCCCN(CC)CCNC(=O)C1CCN(c2nnc(C)c3c(C)n(-c4ccc(C)cc4)nc23)CC1	-18.1%
Cc1cc(N2CCC(C(=O)Nc3ccc(Cl)cc3)CC2)n2nc(C)c(-c3ccc(Cl)cc3)c2n1	-8.16%
CCOC(=O)c1noc2nc(C)n(CC(=O)Nc3ccc(OC)c(Cl)c3)c(=O)c12	-2.23%
O=C(O)CSc1nnc(-c2ccc(O)cc2)o1	-8.3%
Cc1ccc(CC(=O)Nc2c(C(=O)N3CCN(c4ccccc4)CC3)oc3ccccc23)cc1	1.92%
CCOc1ccc(-c2cc(C(=O)NCCc3ccccc3)c3c(-c4ccc(C)cc4)[nH]nc3n2)cc1	1.36%
CCN(CC)c1ccc(NS(=O)(=O)c2ccc(-c3coc(C)n3)cc2)c(C)c1	2.02%
CCN(CC)c1cc(C)c2cc(NC(=O)/C=C/c3ccccc3OC(C)C)ccc2n1	-8.91%
Cc1ccc(Oc2nc3ccccn3c(=O)c2/C=C(\C#N)c2nc3ccccc3s2)c(C)c1	5.61%
Cc1cc(C)c2c(=O)c3c(oc2c1)C(=O)N(Cc1ccco1)C3c1ccc(F)cc1 (stereo not given)	4.13%
CC(=O)N1CCc2c(sc3c2c(=O)n(-c2cccc(Cl)c2)c(=O)n3Cc2ccc(F)cc2Cl)C1	-7.33%
Cc1cc(-c2ccc(C)c(S(=O)(=O)N3c4ccccc4CC3C)c2)on1 (stereo not given)	-3.22%
CCOC(=O)c1c(NC(=O)/C=C/c2ccc(OCC)cc2)sc2c1CCCC2	-8.39%
O=C(NCc1ccc2c(c1)CCN2C(=O)c1ccc(Cl)cc1)c1ccco1	-3.96%
Cc1nnc(N2CCN(c3ccccc3F)CC2)c2c1nnn2Cc1ccccc1Cl	1.58%
CCOc1ccc(NCc2cccn2-c2nnc(N3CCC(C(=O)NCc4ccc(C)cc4)CC3)s2)cc1	-9.71%
CCc1nnc(NC(=O)CSc2nccn2Cc2ccc(F)cc2)s1	-13.8%
COc1ccc(N2CCN(CC(O)COc3ccc(C(C)C)c(C)c3)CC2)cc1 (stereo not given)	9.51%

Compound	inhibition
CC(NC(=O)C(=O)Nc1c2c(nn1-c1ccccc1)CSC2)c1ccccc1 (stereo not given)	18.2%
Cc1ccc2c(c1)c(=O)c(C(=O)c1ccncc1)cn2CC(=O)Nc1ccc(C(C)C)cc1	-3.48%
Cc1ccc(N2CC(NC(=O)c3ccc(Br)o3)CC2=O)cc1C (stereo not given)	24%
Cc1nn(CCC(=O)NCc2ccc(N(C)C)cc2)c(=O)c2nn(-c3ccccc3)c(C)c12	-5.39%
COc1cccc(NC(=O)Cn2nc3c4ccccc4n(Cc4cccc(F)c4)cc-3c2=O)c1	-3.41%
O=[N+]([O-])c1ccccc1-c1ccc(CN2CCN(c3ccccc3)CC2)o1	active: 52.3%
O=C(NC1CC1)c1ccc(Cn2c(SCc3ccccc3F)nc3cccnc32)cc1	-22.9%
Cc1cccc(-n2ncc(C(=O)N3CCN(C(=O)c4ccco4)CC3)c2C2CCN(C(=O)OC(C)(C)C)CC2)c1	-9.34%
Cc1ccc2c(=O)cc(C(=O)Nc3ccc(S(=O)(=O)Nc4onc(C)c4C)cc3)oc2c1	-4.11%
COC(=O)c1c(NC(=O)c2nc(SCc3ccc(C)cc3)ncc2Cl)sc2c1CCCC2	24%
CCCCCNS(=O)(=O)c1ccc(N2CCCCS2(=O)=O)cc1	-3.12%
COc1ccc(NC(=O)Cn2c(=O)n(CCC(=O)NCCc3ccc(OC)c(OC)c3)c(=O)c3ccccc32)cc1Cl	-7.1%
CCOCCCNC(=O)c1[nH]c2cc(OC)ccc2c1Sc1ccccc1	14.6%
CCOc1ccc(/C=N/n2c(-c3ccccc3)n[nH]c2=S)cc1	active: 41.2%
COc1ccc(CCC(=O)NCc2nc3cccnc3n2Cc2ccc(C)cc2)cc1	11.8%
Cc1ccc(S(=O)(=O)NCC(c2ccco2)N2CCN(c3ccccc3F)CC2)cc1 (stereo not given)	-28.3%
Cc1cccc(N(CC(=O)Nc2cccc(Cl)c2C)S(C)(=O)=O)c1C	14.2%
CC(C)CCNC(=O)c1cccc(-n2cnc3cccnc32)c1	2.51%
Cc1cc(OC(C)C(=O)NC2CCN(Cc3ccccc3)CC2)c2c(C)cc(=O)oc2c1 (stereo not given)	active: 72.9%
Cc1ccc(C)c(N2CCN(S(=O)(=O)c3ccc4c(c3)CC(=O)N4C)CC2)c1	2.61%

Compound	inhibition
Cc1ccc(C(=O)COC(=O)c2cccc(NC(=O)c3ccc(Br)cc3)c2)cc1	-6.07%
Brc1cccc(OCCN2CCc3ccccc3C2)c1	active: 96.1%
COc1cccc(CNC(=O)Cn2c(SCC(=O)Nc3ccc(F)cc3)nc3ccccc32)c1	23.1%
Cc1ccc2c(c1)-c1c(c(C(=O)NCCc3ccccc3)nn1C)CS2	-5.34%
Cc1cccc(CS(=O)(=O)Cc2ccc(C(=O)NC(C)c3ccccc3)o2)c1 (stereo not given)	10.9%
CCCN(C(=O)Cc1c(C(=O)O)[nH]c2ccc(Cl)cc12)c1ccc(OCC)cc1	-5.54%
CCCCN(CC)CCCNC(=O)C1CCN(c2nc3ccc(CC)cc3s2)CC1	1.91%
CCOc1ccc(-c2csc(-c3nc(-c4ccc(Br)s4)cs3)n2)cc1	-0.439%
Cc1ccc(NC(=O)C2CCN(c3nnc(-n4cccc4)s3)CC2)cc1Cl	-3.91%
Cc1nnc(SCC(=O)NCc2ccc(N(C)C)cc2)c2nn(-c3ccccc3)c(C)c12	2.73%
CN(CC(=O)Nc1cc(S(=O)(=O)N2CCCC2)ccc1Cl)Cc1ccc2c(c1)OCO2	active: 31.7%
CNCC(O)c1ccc(O)c(O)c1 (stereo not given)	active: 84.7%
COc1cccc(C(c2c(O)cc(C)n(Cc3ccco3)c2=O)N2CCC(C)CC2)c1 (stereo not given)	4.78%
CN(CCCCOc1ccc(F)cc1)Cc1ccccc1	active: 33.3%
O=C(NCc1ccccc1)c1cc2ccccc2o1	6.61%
COc1ccc(OC)c2sc(N(Cc3cccnc3)C(=O)c3ccc(C(C)=O)cc3)nc12	21.1%
COc1ccccc1C(=O)Nc1ccccc1SCc1cc(=O)c2ccccc2[nH]1	-13.7%
CCN(CC)C(=O)Cn1c(=O)n(CCCCCC(=O)NCc2ccccc2)c(=O)c2sccc21	-21%
CCOC(=O)N1CCN(C(=O)C(=O)Nc2sc3c(c2C(N)=O)CC(C)(C)OC3)CC1	active: 33%
O=C(c1ccc2c(c1)N(Cc1ccccc1F)C(=O)c1ccccc1S2=O)N1CCCCC1 (stereo not given)	12.2%
